# In the supplement of paper PMC3334620:
# In all, about 33,000 sequences were measured (“E-score (-0.5 to 0.5)”: median about -0.011, highest 2% from about 0.28 on). The list shows a part of the results.
# Biological target: T1, Gcr1 (UniProt P07261)
# T1 sequence: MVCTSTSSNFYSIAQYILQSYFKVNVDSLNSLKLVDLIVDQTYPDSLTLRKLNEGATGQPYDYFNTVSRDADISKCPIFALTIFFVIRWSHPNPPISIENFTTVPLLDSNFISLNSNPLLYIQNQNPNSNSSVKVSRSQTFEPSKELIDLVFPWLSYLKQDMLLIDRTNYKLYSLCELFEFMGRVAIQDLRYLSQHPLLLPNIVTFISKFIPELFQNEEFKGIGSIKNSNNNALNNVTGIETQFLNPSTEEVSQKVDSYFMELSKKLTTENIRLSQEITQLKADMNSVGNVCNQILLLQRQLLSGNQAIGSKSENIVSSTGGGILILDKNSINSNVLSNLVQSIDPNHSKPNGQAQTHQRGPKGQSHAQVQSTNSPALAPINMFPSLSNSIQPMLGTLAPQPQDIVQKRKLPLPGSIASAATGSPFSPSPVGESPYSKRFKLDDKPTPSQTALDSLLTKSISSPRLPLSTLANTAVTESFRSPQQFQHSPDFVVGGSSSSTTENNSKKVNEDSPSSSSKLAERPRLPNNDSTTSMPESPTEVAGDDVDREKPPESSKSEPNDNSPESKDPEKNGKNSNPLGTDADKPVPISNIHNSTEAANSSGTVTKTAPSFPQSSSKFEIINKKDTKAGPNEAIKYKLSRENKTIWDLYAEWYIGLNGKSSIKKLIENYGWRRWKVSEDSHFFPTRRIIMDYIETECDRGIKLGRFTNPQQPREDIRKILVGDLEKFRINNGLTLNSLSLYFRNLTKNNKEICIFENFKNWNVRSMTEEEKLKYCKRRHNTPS
# Assay: PBM E-score (8-mer binding enrichment) (E-score (-0.5 to 0.5)); higher = stronger / more preferred TF binding; most listed sequences are background and not binding sites
# Conditions: protein concentration: 100 nM; construct: GST-full length
# Description: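 Universal 'all 10-mer' protein binding microarrays (Agilent AMADID 015681) probed with GST-tagged S. cerevisiae TFs (full-length or DBD) made by in vitro transcription/translation (PURExpress), about 100-200 nM. Bound TF was detected with fluorescent anti-GST. Each ungapped 8-mer (which stands for itself and its reverse complement) is scored by the PBM enrichment score (E-score), a modified Wilcoxon-Mann-Whitney statistic from -0.5 to +0.5, computed with the Universal PBM Analysis Suite. Scale: above 0.35 generally sequence-specific binding.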
row,Sequence,PBM E-score
1,GCAGGCAC,-0.0907
2,ACGACCGT,-0.27
3,ACAGGGGT,-0.0188
4,AGCAGCAA,0.0994
5,GGGCGGGA,0.138
6,AGCGTTTG,-0.0376
7,CGGAGTGC,-0.0122
8,AACCGGCA,0.125
9,CCATGCAG,-0.0643
10,ATCGCGGC,0.00952
11,CACTCAAG,0.026
12,ACATTTCT,-0.0213
13,AGGGCAAC,-0.152
14,GCGCCTCA,-0.0124
15,CGAACGCA,0.0901
16,ATTGCTTC,-0.00997
17,AAAATAAG,0.0722
18,CCTCCATC,-0.181
19,CAGGTTGA,-0.0942
20,CACATAGG,0.157
21,AAAACAAC,-0.0583
22,CGCAACAA,-0.123
23,GCTTCTAA,0.116
24,CCCATATC,0.114
25,ATTTCCAG,0.134

row,Sequence,PBM E-score
1,CCCTTAAA,0.204
2,GGTAGGGA,-0.162
3,AAGGCCGG,-0.139
4,TCGTTACA,0.126
5,CCTTAGTC,-0.169
6,AGCAACTA,0.221
7,GAGGCGAC,-0.165
8,CTGGTTAC,0.157
9,ATCTTAAT,0.0415
10,GGCTCGGA,-0.283
11,CAAGCGAA,-0.152
12,TCGGCCCA,-0.12
13,ATTTGGGG,0.23
14,CAAAGTTA,-0.00057
15,CTGTAGCA,0.0373
16,AATCCATC,-0.0449
17,GCTTAGAA,-0.0332
18,CCATCCGC,-0.0189
19,AAGTTTGT,-0.0246
20,AGCACCAA,0.25
21,AAGGATTG,-0.098
22,ACATCGTG,0.0249
23,CTCTCTCA,-0.322
24,CATCTCAC,-0.0591
25,CACACACC,-0.0217

row,Sequence,PBM E-score
1,CTCCGGCC,-0.281
2,AACCGATC,-0.0754
3,GTCACATA,0.192
4,CGCATTGC,-0.0532
5,ATGCCGTA,0.0247
6,CTGAACGA,0.00724
7,CACGCCTG,-0.126
8,AAGTACCG,0.0625
9,AGTAAGCG,-0.12
10,AAGTTCTC,-0.0896
11,TATGCTAA,-0.0329
12,CCACCGTC,-0.105
13,AGACAGCC,-0.106
14,CCCTTTAA,-0.052
15,TATACGGA,-0.0408
16,CGGATCAC,0.111
17,GCCTTACA,-0.0505
18,CGTATCGC,0.0929
19,CGCACTAA,0.117
20,ACGAGGAC,-0.152
21,CGTAATAA,-0.0172
22,TACAGCCA,-0.22
23,TTCCACAA,0.347
24,CTCCTCTC,0.089
25,GCCCCCAC,0.084

row,Sequence,PBM E-score
1,ATCGAAGA,-0.0526
2,GAGCCGAA,-0.0454
3,AAGGGAAT,-0.18
4,ACTGACAC,-0.0565
5,ATTCCACC,0.0984
6,CGATCCAC,-0.153
7,ATGCAGGC,0.0026
8,AAAGAGGC,0.146
9,CAAGGCAG,-0.104
10,AGGCGTGA,-0.191
11,TGGCGTAA,-0.147
12,CCTCAAGG,-0.104
13,ACCCACCG,-0.0537
14,CCGCTCCA,0.101
15,GATAAGCC,-0.196
16,CACCGAAC,-0.117
17,ACGTTAAT,-0.0343
18,CCCCGTTC,-0.082
19,AACCGTAC,-0.126
20,CGTAGTTA,-0.1
21,ATCGGGAA,0.0657
22,CACGCGTG,0.0968
23,TACCCAGA,0.229
24,CCGATCAG,-0.0573
25,AGCGCACA,-0.137

row,Sequence,PBM E-score
1,GTAATCAC,-0.0227
2,GGCTTGTA,-0.16
3,ACATGGGA,-0.0213
4,ATTACTAG,0.155
5,GAAGGGGA,-0.0804
6,GCGGCCAA,-0.0612
7,ATTCCTGG,0.165
8,CACAATTA,0.066
9,ACACGGAC,-0.00335
10,GACCTTCC,-0.171
11,GACCGGTC,-0.0285
12,GTATGTAA,-0.00739
13,AGGCTCCA,0.263
14,CATATTAG,0.117
15,CCCGTAAA,0.0838
16,AACGGCCG,0.0896
17,AACCTCTC,-0.0178
18,AGACGTAC,-0.0811
19,CCCAGGCA,-0.0272
20,CCGTGAGG,-0.0966
21,CGATACTC,-0.101
22,ACAACATG,-0.0588
23,ATGCGGAG,0.137
24,AGTTCTAT,-0.184
25,ACGAGTGA,-0.0397

row,Sequence,PBM E-score
1,CTGTTGGC,0.168
2,TCGTTAGA,-0.105
3,GGCTGGGA,-0.188
4,GTATAAAA,0.115
5,GCCTCTCA,-0.0769
6,CATCCCGA,-0.0295
7,GGTTTCAC,-0.0347
8,GTAACTTA,0.0639
9,TGTTAGAA,0.0895
10,ACACCTAT,0.0167
11,ACACTGTG,0.0228
12,AAAGGGGA,0.197
13,TCCGAACA,0.123
14,ACACGCAC,0.0159
15,CGCGCGAC,-0.16
16,TCTTAGCA,-0.0471
17,AGTAAGTG,-0.165
18,GGCGCGAA,0.0684
19,ATATATTA,0.0581
20,GTGAACAC,-0.209
21,AGTGACCA,-0.0011
22,GCTACCCC,0.00114
23,CGTACCAC,0.17
24,CAGCAGCC,0.359
25,AACACCTA,-0.121

row,Sequence,PBM E-score
1,CACGCAAC,0.0588
2,ACGGTCAC,-0.137
3,CCCATGCC,0.04
4,ACGCCACG,-0.233
5,GACACACA,0.0127
6,ATCCGCCC,-0.214
7,CCGCCAGA,0.144
8,CAGAAGGG,-0.0113
9,TCCAGTAA,0.21
10,AGTGTTTG,-0.114
11,TACTAGCA,0.109
12,CTTAGGAC,-0.0453
13,CCCACGAA,0.0881
14,ATCATGAG,-0.24
15,GATACCTA,0.0383
16,ATTTCGCC,0.0106
17,CGTTTCTA,-0.00405
18,AGCGAACG,-0.216
19,CGGTTGCA,-0.115
20,ACGAATCG,-0.0805
21,CGGAGCCG,0.0209
22,GATACAGA,0.145
